Experimental data as given in PubChem BioAssay (Tox21).
Values joined by “and” are separate entries in the source; they are usually repeats but may differ in a detail not shown here. Equal values may be shown once. The shares of active, inactive and inconclusive entries below differ from those in the screen. Where the call is inconclusive, the potency comes from a doubtful curve fit. Where a structure was tested more than once in an assay, its records may differ in their call. Active and inactive are the calls of the source. Unless noted, calls come from the whole dose curve.

Test: qHTS assay to identify small molecule agonists of H2AX (AID 1224845; active = well fitted activation curve with a large enough effect in the signal ratio in the repeat runs, not every such curve was filed as active; inconclusive = weak or mixed curves; the % refers to the signal ratio)
Details: CHO-K1 phospho-H2AX Ser139 HTRF, 3 h; activation (H2AX phosphorylation): at 154 µM (top of the series)
Outline: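 Phospho-H2AX Ser139 measured by HTRF (ex 320 nm; em 665 and 620 nm) after 24 hr antibody incubation. Compounds, 15 concentrations, 0.76% DMSO, were applied to CHO-K1 cells for 3hr at 37C before lysis.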
% is set by controls: 0 for no effect and ±100 for the full control effect; potency is the fitted concentration of half-maximal effect; tags give direction and shape of the fitted curve or compound fluorescence and quenching.

SMILES	Potency	activation (H2AX phosphorylation)
O=C(O)CC[N+](=O)[O-]	inactive	
CN(C)CCc1c[nH]c2ccc(O)cc12	inconclusive: 110 µM [single point]	
COCCC#N		inactive: -1.56%
NC1CCC(CC2CCC(N)CC2)CC1 (centres undefined)		inactive: -0.314%
CCCCCCCCCCCCCCn1cc[n+](C)c1	inconclusive: 40.2 µM [activator, partial curve] and inconclusive: 127 µM [cytotoxic, single point]	
Brc1cccc(-c2ccccc2)c1		inconclusive: 7.26%
CCCCCCCCCCCCCCCCCCn1cc[n+](C)c1	inconclusive: 89.3 µM [activator, single point]	
Cc1cccc(Cc2cnc[nH]2)c1C	inconclusive: 27.7 µM	
O=C1c2ccccc2C(=O)c2ccccc21	inconclusive: 27 µM [fluorescent, partial curve]	
CCCCC/C=C\C/C=C\C/C=C\C/C=C\CCCC(=O)NCC(=O)O	inconclusive: 49.2 µM [activator, single point]	
CCCCCC[n+]1ccccc1	inactive	
CCCC[n+]1cccc(C)c1	inactive	
CCC(C)Br (centres undefined)		inactive: 0.247%
[Cd+2].[Cl-].[Cl-]	active: 50.9 µM and active: 56.6 µM	
CC(O)C(=O)[O][Hg][c]1ccccc1 (centres undefined)	inconclusive: 2.84 µM [activator, partial curve]	

Test: qHTS assay to identify small molecule agonists of the hypoxia (HIF-1) signaling pathway (AID 1224846; active = well fitted activation curve with a large enough effect in the signal ratio in the repeat runs, not every such curve was filed as active; inconclusive = weak or mixed curves; the % refers to the signal ratio)
Details: HRE-bla ME-180 cells, beta-lactamase ratio, 17 h; activation: at 76.8 µM (top of the series) unless noted
Outline: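 ME-180 HRE-bla reporter cells; compounds in DMSO, 17 h at 37C; read-out beta-lactamase via CCF4-AM FRET.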

SMILES	Potency	activation
CCCN(CC)CC1COC2(CCC(C(C)(C)C)CC2)O1 (centres undefined)	inconclusive: 0.195 µM [falling, single point]	
Cc1ccc2cc3c(ccc4ccccc43)c3c2c1CC3		inconclusive: 9.87% [at 35.5 µM]
CC(C)[C@@H](Nc1ccc(C(F)(F)F)cc1Cl)C(=O)OC(C#N)c1cccc(Oc2ccccc2)c1 (some centres undefined)	inconclusive: 52.9 µM	
CN(C)CCc1c[nH]c2ccc(O)cc12	inconclusive: 60.2 µM [single point]	
O=C(O)c1ccc2[nH]cc(CCCCN3CC=C(c4ccccc4)CC3)c2c1		inactive: -0.691% [at 35.5 µM]
C=CCC1=C(C)[C@@H](OC(=O)[C@@H]2[C@@H](C=C(C)C)C2(C)C)CC1=O	inconclusive: 54.9 µM	
Cc1ccc2ccccc2c1		inactive: -0.422%
O=C(N[C@H]1N=C(c2ccccc2F)c2cccc3c2N(CC3)C1=O)c1cc2ccccc2[nH]1	inconclusive: 23.9 µM [falling, partial curve]	
c1csc(-c2ccc(-c3cccs3)s2)c1	inconclusive: 43.6 µM [activator, partial curve]	
Cc1cc(C)c(C2=C(OC(=O)CC(C)(C)C)C3(CCCC3)OC2=O)c(C)c1	inconclusive: 57.5 µM [single point]	
CCCCCCCCCCCCCCCCCCn1cc[n+](C)c1	inconclusive: 38.7 µM [falling, partial curve]	
CCCN(CCC)CCc1c[nH]c2ccccc12		inactive: -0.425%
Cc1cccc(Cc2cnc[nH]2)c1C	inconclusive: 21.3 µM [falling, partial curve]	
C[C@]12C=CC3=C4CCC(=O)C=C4CC[C@H]3[C@@H]1CC[C@@H]2O	inconclusive: 52.2 µM [activator, single point]	
CCOP(=O)(NC(C)C)Oc1ccc(SC)c(C)c1 (centres undefined)	inconclusive: 43.6 µM [rising, partial curve, poor fit]	
Sc1ccccc1Cl		inactive: 0.0337% [at 35.5 µM]
CCCC[n+]1cccc(C)c1	inactive	
CCOP(=O)(OCC)Oc1nc(Cl)c(Cl)cc1Cl	inconclusive: 27.4 µM [falling, partial curve]	
[Cd+2].[Cl-].[Cl-]	inconclusive: 12.4 µM [falling, full curve] and inconclusive: 24.5 µM [falling, full curve]	
COC12CC[C@@]3(C[C@@H]1C(C)(O)C(C)(C)C)[C@H]1Cc4ccc(O)c5c4[C@@]3(CCN1CC1CC1)[C@H]2O5 (some centres undefined)	inconclusive: 48.6 µM [falling, partial curve]	
CC(O)C(=O)[O][Hg][c]1ccccc1 (centres undefined)	inconclusive: 1.55 µM [falling, full curve]	

Test: qHTS assay to identify small molecule agonists of H2AX - cell viability counter screen (AID 1224847); note: nearly all actives have a fitted effect of over 30% in size;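 for activity change, negative = cytotoxicity: wild-type CHO-K1 cells; top concentration of the series differs between compounds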
Details: CHO-K1 viability, CellTiter-Glo luminescence, 3 h; series mostly up to 154 µM; activity change, negative = cytotoxicity: at the top concentration
Outline: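 For this counter screen, overnight-attached CHO-K1 cells received test compounds (15 concentrations, 0.76% DMSO final); 3 hr later at 37C, CellTiter-Glo reagent was added and luminescence recorded after 30 min at room temperature.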

SMILES	Potency	activity change, negative = cytotoxicity
CC(C)c1cccc(C(C)C)c1O	inconclusive: 126 µM [cytotoxic, single point] and active: 50.5 µM	
C=CCN1C[C@H](C)N([C@H](c2ccc(C(=O)N(CC)CC)cc2)c2cccc(OC)c2)C[C@H]1C	inconclusive: 49.2 µM [cytotoxic, partial curve, poor fit]	
O=C([O-])c1ccccn1.O=C([O-])c1ccccn1.O=C([O-])c1ccccn1.[Cr+3]		inactive: 0.692%
Cc1ccc2cc3c(ccc4ccccc43)c3c2c1CC3		inactive: -3.62% [at 70.9 µM]
CC(C)[C@@H](Nc1ccc(C(F)(F)F)cc1Cl)C(=O)OC(C#N)c1cccc(Oc2ccccc2)c1 (some centres undefined)	inconclusive: 13.7 µM [cytotoxic, full curve]	
C=CCC1=C(C)[C@@H](OC(=O)[C@@H]2[C@@H](C=C(C)C)C2(C)C)CC1=O	active: 50.5 µM	
CCCCCCCCCCCCCCn1cc[n+](C)c1	active: 12.7 µM and active: 22.3 µM and inconclusive: 127 µM [cytotoxic, single point]	
Brc1cccc(-c2ccccc2)c1	inconclusive: 128 µM [cytotoxic]	
Cc1cc(C)c(C2=C(OC(=O)CC(C)(C)C)C3(CCCC3)OC2=O)c(C)c1	inconclusive: 2.36 µM [cytotoxic, single point]	
CCCCCCCCCCCCCCCCCCn1cc[n+](C)c1	active: 22.4 µM	
CCCN(CCC)CCc1c[nH]c2ccccc12	inconclusive: 39.6 µM [cytotoxic, partial curve, poor fit]	
Cl[C@H]1OCCO[C@@H]1Cl	inactive	
CCOP(=O)(NC(C)C)Oc1ccc(SC)c(C)c1 (centres undefined)	inconclusive: 127 µM [cytotoxic]	
CCCCC/C=C\C/C=C\C/C=C\C/C=C\CCCC(=O)NCC(=O)O	inconclusive: 61.9 µM [cytotoxic, single point]	
O=S(=O)(O)C(F)(F)C(F)(F)C(F)(F)C(F)(F)C(F)(F)C(F)(F)F	inconclusive: 50.5 µM [rising, single point]	
CC1(C)CC(=O)CC(C)(C)N1[O]		inactive: 0.699%
CCCC[n+]1cccc(C)c1	inactive	
ClC=C(Cl)Cl		inactive: -0.183%
CCOc1ccc(C(C)(C)COCc2cccc(Oc3ccccc3)c2)cc1		inactive: -1.21%
[Cd+2].[Cl-].[Cl-]	inconclusive: 10.2 µM [cytotoxic, full curve] and inconclusive: 20.1 µM [cytotoxic, full curve]	
COC12CC[C@@]3(C[C@@H]1C(C)(O)C(C)(C)C)[C@H]1Cc4ccc(O)c5c4[C@@]3(CCN1CC1CC1)[C@H]2O5 (some centres undefined)	active: 28.2 µM	
Cc1ccc(OP(=O)(Oc2ccccc2)Oc2ccccc2)cc1	inconclusive: 115 µM [cytotoxic, single point]	
CC(O)C(=O)[O][Hg][c]1ccccc1 (centres undefined)	active: 6.35 µM	
